# Out of some 310,000 compounds screened, about 14,000 (4.5%) showed an effect of 50% or more. Effects have a minus sign here. This is one part of the list.
# Target: human ether-à-go-go-related gene (hERG) potassium channel (human, UniProt Q12809)
# Experiment: primary screen, population patch clamp on CHO cells stably expressing hERG
# 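Note: peak tail current of the secondary pulse compared with the same well before compound.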
# Sequence of human ether-à-go-go-related gene (hERG) potassium channel (Q12809 whole entry, looked up): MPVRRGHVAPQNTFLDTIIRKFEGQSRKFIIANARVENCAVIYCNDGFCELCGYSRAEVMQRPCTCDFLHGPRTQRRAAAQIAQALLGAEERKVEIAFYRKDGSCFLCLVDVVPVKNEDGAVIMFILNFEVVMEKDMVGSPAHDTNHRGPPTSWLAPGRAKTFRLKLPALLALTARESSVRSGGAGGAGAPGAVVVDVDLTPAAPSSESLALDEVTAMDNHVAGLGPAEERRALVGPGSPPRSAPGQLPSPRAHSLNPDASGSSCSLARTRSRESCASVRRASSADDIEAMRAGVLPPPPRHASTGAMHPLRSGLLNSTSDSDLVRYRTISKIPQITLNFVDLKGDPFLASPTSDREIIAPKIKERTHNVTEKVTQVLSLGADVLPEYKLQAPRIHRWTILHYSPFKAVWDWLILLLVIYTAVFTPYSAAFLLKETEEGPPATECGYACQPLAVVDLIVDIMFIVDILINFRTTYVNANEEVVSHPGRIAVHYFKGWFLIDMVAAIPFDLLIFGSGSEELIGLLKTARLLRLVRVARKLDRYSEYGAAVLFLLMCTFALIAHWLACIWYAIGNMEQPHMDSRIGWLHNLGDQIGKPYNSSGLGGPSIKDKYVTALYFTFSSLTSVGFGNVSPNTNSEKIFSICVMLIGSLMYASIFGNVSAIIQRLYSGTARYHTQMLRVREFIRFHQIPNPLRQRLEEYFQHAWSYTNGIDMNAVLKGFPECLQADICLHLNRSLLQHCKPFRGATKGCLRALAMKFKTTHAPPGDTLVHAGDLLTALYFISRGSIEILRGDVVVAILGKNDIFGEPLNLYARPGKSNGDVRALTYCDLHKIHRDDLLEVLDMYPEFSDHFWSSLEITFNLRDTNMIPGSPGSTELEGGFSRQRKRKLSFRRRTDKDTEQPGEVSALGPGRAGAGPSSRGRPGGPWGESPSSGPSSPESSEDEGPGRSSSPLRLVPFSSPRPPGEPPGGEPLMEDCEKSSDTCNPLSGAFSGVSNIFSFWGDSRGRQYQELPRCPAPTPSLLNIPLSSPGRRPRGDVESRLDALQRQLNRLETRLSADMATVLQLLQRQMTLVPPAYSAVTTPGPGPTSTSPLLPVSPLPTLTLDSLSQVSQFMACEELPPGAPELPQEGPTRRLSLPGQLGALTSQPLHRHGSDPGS
row,Compound,"hERG current change (%, negative = inhibition) at 10uM"
1,CC(C)Sc1nnc(CNC(=O)C23CC4CC(CC(C4)C2)C3)n1Cc1ccccc1,-15.9%
2,O=C(O)c1ccccc1C(=O)NNc1ccc(Cl)cc1Cl,1.56%
3,CCCCOC(=O)/C(=C/c1cn(C)c2ccccc12)NC(=O)c1ccc(OC)cc1,-2.29%
4,CC1=C(C)CC(C(=O)Nc2nccs2)C(C(=O)O)C1 (stereo not shown),28.7%
5,Cc1csc(NC(=O)CSCc2c(C)noc2C)n1,-2.35%
6,Fc1ccc2c(c1)C(c1ccncc1)=NNC(c1cccnc1)=N2,-18.6%
7,CCOC(=O)c1ccc(N2C(=O)c3n[nH]c(-c4ccco4)c3C2c2cccc([N+](=O)[O-])c2)cc1 (stereo not shown),-13.9%
8,O=C(CN(c1ccc2c(c1)OCCO2)S(=O)(=O)c1ccccc1)NCc1ccc(Cl)cc1,-6.6%
9,O=C(CNC(=O)OCc1ccccc1)NC1CCCCNC1=O (stereo not shown),16.6%
10,COc1ccc(C(=O)Nc2ccc(N3CCN(C(=O)c4ccccc4)CC3)cc2)cc1[N+](=O)[O-],-67.2%
11,CCN1CCN(c2cc(C)c3cc(NC(=S)N4CCCCC4)ccc3n2)CC1,-50.1%
12,CC(=O)N1CCN(c2nnc(-c3ccccc3)c3ccccc23)CC1,3.22%
13,NC(=O)CC(NC(=O)c1cccc(Br)c1)c1ccc(N2CCN(c3ccccn3)CC2)c([N+](=O)[O-])c1 (stereo not shown),1.19%
14,CCCCCSc1ncccc1C(=O)O,21.7%
15,Cc1ccccc1NC(=O)C(C)c1ccc(-c2ccccc2)c(F)c1 (stereo not shown),-1.3%
16,Cc1ccc2c(c1)c1c3n2CCN(C(=O)CCl)C3CCC1 (stereo not shown),-15.1%
17,NS(=O)(=O)c1ccc(CNC(=O)c2ccc(Cl)cc2[N+](=O)[O-])cc1,-3.98%
18,CN(C)c1cccc(C(=O)NC2CCCc3ccccc32)c1 (stereo not shown),0.528%
19,Cc1cccc(-n2cc(CN3CCN(C(=O)c4ncn[nH]4)CC3)c(-c3cccc(F)c3)n2)c1,-16.5%
20,C#CCOCCOCCOCCNc1nc(N2CCN(C(=O)C(Cc3ccc(O)cc3)n3cc(C(N)CC(C)C)nn3)CC2)nc(N2CCN(C(=O)C(Cc3cc4ccccc4[nH]3)n3cc(C(N)C(C)CC)nn3)CC2)n1.Cl (stereo not shown),10.3%
21,Br.N=C1c2ccccc2CN1NC(=O)c1cccc(S(=O)(=O)N2CCCCC2)c1,13.5%
22,CC(C)NC(=O)c1ccc(N(Cc2ccc(Cl)cc2)S(C)(=O)=O)cc1,-17.4%

row,Compound,"hERG current change (%, negative = inhibition) at 10uM"
1,Cc1nc(SCC(=O)c2ccccc2)[nH]c(=O)c1Oc1ccc(Cl)cc1,18.4%
2,CCCC(=O)NC(Nc1ccccc1F)C(Cl)(Cl)Cl (stereo not shown),-8.18%
3,CCC(C(=O)O)N1C(=O)c2ccccc2C1=O (stereo not shown),10.1%
4,Cc1oc2ccc(O)c(CN(C)C)c2c1C(=O)c1ccccc1,-42.4%
5,CC(=O)Nc1ccc(C)cc1,12.2%
6,Clc1ccc(/C=C/c2nc(Cl)c(-c3ccc(Cl)cc3)c(Cl)n2)cc1,23.9%
7,O=C1c2ccccc2NC(c2ccc(Cl)cc2Cl)N1Cc1ccccc1 (stereo not shown),-2.71%
8,Cc1ccccc1NC(=S)NNC(=O)c1ccncc1,11.3%
9,CC(=O)CSc1nc2c(c(=O)[nH]c(=O)n2C)n1Cc1ccccc1Cl,9.56%
10,O.O=c1c(O)c(-c2ccc(O)c(O)c2)oc2cc(O)cc(O)c12,0.53%
11,COC(=O)Cc1[nH]nc2c1C(c1c[nH]c3ccccc13)C(C#N)=C(N)O2 (stereo not shown),17.8%
12,Cc1cc(C)nc(N2CCC(C(=O)NCc3ccccc3)CC2)n1,3.44%
13,CC(C)(C)c1cc(C(=O)NNc2cc(C(F)(F)F)ccc2Cl)n(Cc2ccccc2)n1,-2.61%
14,CC(=O)N1c2ccc(S(=O)(=O)N3CCC(C(=O)NCc4ccc(N(C)C)cc4)CC3)cc2CC1C (stereo not shown),18.8%
15,CCOc1ccc(CN(C(=O)c2ccco2)C2CCS(=O)(=O)C2)cc1 (stereo not shown),-0.726%
16,O=C(Cn1c(CN2CCCCC2)nc2ccccc2c1=O)NCc1ccco1,-15.4%
17,CCOC(=O)C(=CNc1cc(C)nn1-c1ccc(C)cc1)C(=O)OCC,-25.5%
18,COc1ccc(Nc2nc(N3CCCCC3)nc(N3CCCCC3)n2)c(OC)c1,15.2%
19,COc1ccc(Cl)cc1NC(=S)NCCSc1ccc(C)cc1,11.9%
20,O=C(NC1CC(=O)N(c2ccccc2)C1)C1CC1 (stereo not shown),0.461%
21,CSCCC(NC(=O)c1cccc([N+](=O)[O-])c1)C(=O)O (stereo not shown),4.08%
22,O=C(O)CSCC(=O)c1ccccc1,6.46%

row,Compound,"hERG current change (%, negative = inhibition) at 10uM"
1,COc1ccc(C2CC(=O)c3cnc(N4CCN(Cc5ccccc5)CC4)nc3C2)cc1 (stereo not shown),-5.45%
2,CCOC(=O)c1c(C)[nH]c(C(=O)Nc2ccc(NC(C)=O)cc2)c1C,2.71%
3,Cc1ccc(-c2ncns2)cc1,1.96%
4,O=C(COC(=O)Cc1ccc2c(c1)OCCO2)Nc1ccc(S(=O)(=O)N2CCCC2)cc1,10.5%
5,COc1ccc(CNC(=O)/C=C/c2ccc3[nH]cc(CCN(C)C)c3c2)cc1,-11.2%
6,O=C(CCc1nc(-c2ccccc2F)no1)NC1CCCCCC1,-1.9%
7,CCOc1nc(-c2ccncc2)nc2ccccc12,-10.6%
8,COc1ccc(C2CC(=O)c3cnc(N4CCc5ccccc54)nc3C2)cc1OC (stereo not shown),7.43%
9,COc1cc(-c2nnc(SCC(=O)N(Cc3ccccc3)C(C)(C)C)o2)cc(OC)c1OC,-5.5%
10,CCn1cc(CN2CCCC(C(=O)c3ccc(-c4ccccc4)cc3)C2)cn1 (stereo not shown),-59.1%
11,CCCn1c(N2CCN(C)CC2)nc2c1c(=O)[nH]c(=O)n2C,-13.5%
12,O=C(N/N=C/c1c[nH]c2ccccc12)c1cccc(O)c1,18.6%
13,O=C(COC(=O)COc1ccccc1Cl)Nc1ccccc1OC(F)F,16.1%
14,C=CCn1c(CNC(=O)c2cccs2)nnc1SCc1ccc(Cl)cc1Cl,-41.7%
15,CCOC(=O)c1cc2c(ccn2C)n1Cc1ccc(Cl)cc1,16.7%
16,CNC(=O)c1cc2c(s1)CCCCCC2,-1.62%
17,COCC1CCCN(C(=O)c2cc(COc3cccc4cccnc34)on2)C1 (stereo not shown),1.78%
18,O=C(NCCc1ccc(Cl)cc1)C1CCN(S(=O)(=O)c2cccs2)CC1,-71.2%
19,COc1ccc(-c2nn(CCC(=O)O)cc2/C=C2\SC(N)=NC2=O)cc1OC,2.99%
20,Cc1cccc(C)c1OCC(=O)N/N=C/c1ccncc1,15.4%
21,COc1ccc(OC)c(NC(=O)C2CCCN(S(=O)(=O)c3c(C)noc3C)C2)c1 (stereo not shown),-16.8%
22,CN(Cc1ccccc1)C(=O)C1CCN(S(=O)(=O)c2ccc3nc4c(c(C(=O)O)c3c2)CCCC4)CC1,2.84%

row,Compound,"hERG current change (%, negative = inhibition) at 10uM"
1,CC(C)N(CCCNC(=O)Cn1c(=O)c2cccn2c2ccccc21)Cc1ccccc1,-21.7%
2,Cc1noc(C)c1COC(=O)CCN1c2ccccc2Sc2ccccc21,7.54%
3,NC(=O)C1CCN(C(=O)c2cn(-c3ccccc3)nc2-c2cccnc2)CC1,17.5%
4,COc1ccc(/C=C/C2=CC(C)(C)NC(=S)N2)cc1OC,18.7%
5,Cc1ccc(S(=O)(=O)N(CCO)Cc2ccccc2)cc1,5.9%
6,CCSc1nnc(NC(=O)CSc2nc3c(c(=O)n2CC)SC(C)C3)s1 (stereo not shown),6.95%
7,Cc1cccc(NC(=O)c2cc3c([nH]c4ccccc43)c(C)n2)c1C,11.6%
8,O=C(C1=C(O)C(=O)N(CC2CCCO2)C1c1ccccc1Cl)c1ccco1 (stereo not shown),9.48%
9,C#CCOCCOCCOCCNc1nc(N2CCN(C(=O)[C@H](Cc3cc4ccccc4[nH]3)n3cc([C@@H](N)C(C)CC)nn3)CC2)nc(N2CCN(C(=O)[C@H](CCCCN)n3cc([C@@H](N)CO)nn3)CC2)n1.Cl (stereo partly shown),7.98%
10,Cc1cc(C)n(/N=C/c2ccco2)c(=O)c1C#N,-0.185%
11,Cc1c(N=C2SCC(=O)N2/N=C/c2ccccc2Cl)c(=O)n(-c2ccccc2)n1C,-17.5%
12,CCCCCCCCCCCCCC(=O)O,10.2%
13,O=c1[nH]c(O)c(/C=C2\C=Nc3ccc(OCc4ccccc4)cc32)c(=O)[nH]1,24.9%
14,COc1ccc(C(=O)OCC2CC(c3ccccc3)=NO2)cc1OC (stereo not shown),-4.79%
15,COc1cc(OC)nc(NC(=O)CSc2nc3ccccc3o2)n1,0.663%
16,CC(C)c1ccc(NS(=O)(=O)c2ccc3[nH]cc(C(=O)N4CCC(C(N)=O)CC4)c(=O)c3c2)cc1,19.1%
17,O=C(c1ccccc1)N1CCN(C(=O)c2ccncc2)CC1,14.3%
18,O=C(NCc1ccccc1Cl)C1CCC(CNc2nc(=S)[nH]c3ccccc23)CC1 (stereo not shown),16.9%
19,CSc1nc(N)nc(SCC(=O)C23CC4CC(CC(C4)C2)C3)c1C#N,2.08%

# Reference: paper PMC4336329 (PLoS ONE, 2015)
